Experimental data published in PubChem BioAssay AID2675 (National Center for Advancing Translational Sciences (NCATS), 2010).
Hit rate of the full screen: of about 280,000 compounds, about 100 (0.036%) were called active. The shares of active, inactive and inconclusive entries below differ from those in the screen. Calls come from the whole dose curve; as a rule, active = well fitted inhibition curve with a large enough effect in the signal ratio, with a control signal flat (not every such curve was filed as active); inconclusive = small, poorly fitted or top-dose-only effect, or effect the other way, or a change in a side signal; inactive = no such curve, though single readings can be large or run the other way; the % refers to the signal ratio. Potencies beside an inconclusive call are fits to weak or partial responses and may not hold up. “Side channel” marks fits to a control or component signal instead of the main read-out.
% is set by controls: 0 for no effect and ±100 for the full control effect; potency is the fitted concentration of half-maximal effect; tags give direction and shape of the fitted curve or compound fluorescence and quenching.

These molecules were tested against Muscleblind-like protein 1 (Homo sapiens) (UniProt Q9NR56) (assay: qHTS Assay for Inhibitors of MBNL1-poly(CUG) RNA binding). Conditions: TR-FRET MBNL1-His/biotin-(CUG)12 binding, 665/545 ratio; activity change, negative = inhibition: at 57.5 µM (top of the series).
UniProt Q9NR56, sequence (Q9NR56 whole entry, looked up): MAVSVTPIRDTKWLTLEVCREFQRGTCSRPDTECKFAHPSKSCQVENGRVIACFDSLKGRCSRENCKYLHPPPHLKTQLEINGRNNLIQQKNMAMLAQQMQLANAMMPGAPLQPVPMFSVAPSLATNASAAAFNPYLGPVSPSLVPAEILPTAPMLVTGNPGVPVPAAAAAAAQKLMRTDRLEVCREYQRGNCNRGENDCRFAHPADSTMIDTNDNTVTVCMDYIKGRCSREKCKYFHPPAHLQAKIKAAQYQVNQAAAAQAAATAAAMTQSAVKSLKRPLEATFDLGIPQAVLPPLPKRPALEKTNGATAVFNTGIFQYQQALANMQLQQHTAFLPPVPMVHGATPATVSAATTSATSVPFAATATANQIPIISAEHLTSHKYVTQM
How it was run: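 TR-FRET readout: Ex 340 nm, 665/545 nm emission ratio, normalized to buffer-only (basal) and MBNL1-(CUG)12 controls. Complex of MBNL1-His with Biotin-(CUG)12, compounds 92 nM–58 uM, incubated 60 min at room temperature.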
In the case of `COc1ccc(NC2=NC(C)(CO)CS2)cc1` (stereo unspecified), the Potency is reported as inconclusive: 79.4 µM [inhibitor, partial curve]. For `COc1ccc(N2CCN(C(=O)c3ccccc3Br)CC2)c([N+](=O)[O-])c1`, the Potency was inconclusive: 8.91 µM [quencher, side channel, full curve]. `O=C(Cn1c(-c2ccccc2)c[n+]2ccsc12)c1ccc([N+](=O)[O-])cc1` was tested, and the Potency was inconclusive: 8.91 µM [quencher, partial curve]. `CC1CCN(CC(=O)Nc2sc3c(c2C#N)CCC3)CC1` was tested, and the “activity change, negative = inhibition” value was inactive: -17.7%. In the case of `COc1ccc(CNc2nc3nc(C)cc(C)n3n2)cc1OC`, the “activity change, negative = inhibition” value is reported as inactive: 4.17%. `CCCCC(=O)Nc1cccc(NC(=O)c2cccc([N+](=O)[O-])c2)c1` was tested, and the Potency was inconclusive: 20 µM [quencher, side channel, partial curve]. For `O=C(NCCc1ccccc1)C1CCN(C(=O)c2ccc([N+](=O)[O-])cc2)CC1`, the Potency was inconclusive: 15.8 µM [quencher, side channel, partial curve]. For `CC1CN(C(=O)c2cc3cc([N+](=O)[O-])ccc3oc2=O)CC(C)O1` (stereo unspecified), the Potency was inconclusive: 10 µM [quencher, side channel, partial curve]. For `O=C(NCCCN1CCOCC1)c1ccc(NS(=O)(=O)c2cccc([N+](=O)[O-])c2)cc1`, the Potency was inconclusive: 25.1 µM [quencher, side channel, partial curve]. For `CN(C)S(=O)(=O)c1ccc(N2CCCC2)c(C(=O)Nc2nc3c(ccc4ccccc43)s2)c1`, the “activity change, negative = inhibition” value was inactive: 168%. With `O=Cc1cc([N+](=O)[O-])ccc1N1CCN(Cc2ccc3c(c2)OCO3)CC1` the Potency was inconclusive: 14.1 µM [quencher, partial curve]. For `O=C(CSc1ccsc1[N+](=O)[O-])N1CCCCCC1`, the Potency was inconclusive: 14.1 µM [quencher, side channel, partial curve]. With `CN(Cc1ccccc1)C(=S)NC(=O)c1ccc(-c2ccccc2)cc1` the “activity change, negative = inhibition” value was inactive: 4.41%. `O=C1CN(C(=O)NCC(=O)N[C@@H](Cc2ccccc2)C(=O)O)c2ccccc2N1` was tested, and the Potency was inconclusive: 1 µM [fluorescent, side channel, single point]. With `Cc1ccc(C(=O)c2cc([N+](=O)[O-])ccc2N2CC(C)OC(C)C2)cc1` (stereo unspecified) the Potency was inconclusive: 0.1 µM [fluorescent, side channel, full curve]. `O=[N+]([O-])c1ccc(/C=N/N2CCCCC2)cc1` was tested, and the Potency was inconclusive: 15.8 µM [quencher, side channel, partial curve]. With `CC(/C=N/Nc1ncc(C)c(=O)[nH]1)=C\c1ccccc1` the Potency was inconclusive: 28.2 µM [quencher, side channel, partial curve]. In the case of `Cc1ccc(NC(=O)c2ccc3nccnc3c2)c(C)c1`, the Potency is reported as inconclusive: 25.1 µM [quencher, side channel, single point]. For `COc1ccccc1Oc1c(C)oc2c(CN(C)C)c(O)ccc2c1=O`, the Potency was inconclusive: 0.1 µM [fluorescent, side channel, full curve]. In the case of `CC(C)CNS(=O)(=O)c1ccc(CCC(=O)N2CCN(Cc3ccc4c(c3)OCO4)CC2)cc1`, the “activity change, negative = inhibition” value is reported as inactive: -12.8%. For `Cc1cc(C)n(-c2cc(N3CCN(C(=O)c4cccc(F)c4)CC3)ccc2[N+](=O)[O-])n1`, the Potency was inconclusive: 10 µM [quencher, side channel, partial curve]. `COc1ccccc1C/C(N)=N/OC(=O)c1cccc([N+](=O)[O-])c1` was tested, and the Potency was inconclusive: 0.141 µM [quencher, side channel, full curve, poor fit]. In the case of `COc1cc(S(=O)(=O)NCCOC23CC4CC(CC(C4)C2)C3)c(OC)cc1Cl`, the activity change, negative = inhibition is reported as inconclusive: -12.2% [phenotype inactive]. For `Cc1cc(NC(=O)CSc2cc(Cl)ccc2Cl)n(-c2ccccc2)n1`, the “activity change, negative = inhibition” value was inactive: -25.7%. With `COc1ccc(/C=C2\Sc3ccc(C(=O)NCc4cccnc4)cc3N(C)C2=O)cc1OC` the Potency was inconclusive: 11.2 µM [quencher, side channel, partial curve]. With `c1ccc(-c2ccc(-c3nc(-c4ccncc4)no3)cc2)cc1` the “activity change, negative = inhibition” value was inactive: 38.1%. With `COc1cc(NS(=O)(=O)c2ccc(NC(=S)NC(=O)/C=C/c3ccco3)cc2)ncn1` the Potency was inconclusive: 39.8 µM [quencher, side channel, single point]. With `O=C(c1cc2c(ccc3ccccc32)o1)N1CCCCC1` the Potency was inconclusive: 25.1 µM [quencher, side channel, single point]. With `CC(Oc1ccc2cc(-c3ccccc3)c(=O)oc2c1)C(=O)NCC1CCC(C(=O)O)CC1` (stereo unspecified) the Potency was inconclusive: 20 µM [quencher, side channel, partial curve]. In the case of `Cc1cc(C)c[n+](-c2[nH]c(=O)sc2/C=N/NC([S-])=Nc2ccccc2)c1`, the Potency is reported as inconclusive: 2.82 µM [quencher, side channel, partial curve]. For `Cc1ccc(-c2c(C#N)c(N)n3c(nc4ccccc43)c2C#N)cc1`, the Potency was inconclusive: 3.55 µM [quencher, side channel, full curve, poor fit]. In the case of `COc1ccc(/C=N/NC(=O)c2ccn[nH]2)cc1Cn1cc([N+](=O)[O-])cn1`, the Potency is reported as inconclusive: 20 µM [quencher, side channel, partial curve]. In the case of `S=C(Nc1ccccc1Oc1ccccc1)Nc1cccc(Cl)c1Cl`, the Potency is reported as inconclusive: 100 µM [inhibitor, single point]. `Cc1cc(S(=O)(=O)N2CCOCC2)ccc1OCC(=O)N1CCOCC1` was tested, and the Potency was inconclusive: 2.51 µM [quencher, side channel, full curve]. In the case of `Cc1c(OCC(=O)NCC2CCC(C(=O)O)CC2)ccc2c(-c3ccccc3)cc(=O)oc12` (stereo unspecified), the Potency is reported as inconclusive: 22.4 µM [quencher, side channel, partial curve]. For `CCCCc1nc2c(C)c(N)cnc2n1Cc1cccc([N+](=O)[O-])c1`, the Potency was inconclusive: 22.4 µM [quencher, side channel, partial curve]. In the case of `CC1CCN(c2cc(N3CCOCC3)c(F)cc2[N+](=O)[O-])CC1`, the Potency is reported as inconclusive: 25.1 µM [quencher, side channel, partial curve]. With `CC(C(=O)NC1CCS(=O)(=O)C1)N1C(=O)/C(=C/c2ccc(Cl)cc2)SC1=S` (stereo unspecified) the Potency was inconclusive: 25.1 µM [quencher, side channel, partial curve]. `Fc1ccccc1/C=N/Nc1ncnc2nc[nH]c12` was tested, and the Potency was inconclusive: 39.8 µM [quencher, side channel, single point]. For `CC1CCN(C(=O)C(NS(=O)(=O)c2cccc3nsnc23)c2ccccc2)CC1` (stereo unspecified), the Potency was inconclusive: 8.91 µM [quencher, side channel, partial curve]. `COC(=O)CNc1c(-c2ccccc2)nc2ccc(Br)cn12` was tested, and the Potency was inconclusive: 15.8 µM [quencher, side channel, partial curve]. With `O=C(CC(c1ccccc1)(c1ccccc1)c1ccccc1)N[C@@H](Cc1ccccc1)C(=O)O` the “activity change, negative = inhibition” value was inactive: -18.3%. `Clc1cccc2sc(N3CCCC3)nc12` was tested, and the “activity change, negative = inhibition” value was inactive: 1.95%. `O=C(NCCCl)c1ccc(OCc2ccccc2)cc1Cl` was tested, and the “activity change, negative = inhibition” value was inactive: -1.67%. With `CCOCC(=O)NCc1ccc2c(c1)cc(C)n2C` the Potency was inconclusive: 39.8 µM [quencher, side channel, single point]. `O=c1c2c3c(sc2n2cnnc2n1-c1ccccc1)N(Cc1ccccc1)CCC3` was tested, and the Potency was inconclusive: 25.1 µM [quencher, side channel, partial curve]. For `Cc1ccccc1OCCn1c(=S)[nH]c2c(N)ncnc21`, the “activity change, negative = inhibition” value was inactive: -7.09%. With `CCOC(=O)c1c(C)n(-c2ccc(C)cc2)c2c(C(C(C)=O)C(=O)O)c(Br)c(O)c(O)c12` (stereo unspecified) the “activity change, negative = inhibition” value was inactive: -1.72%. For `Cc1cc(Cl)ccc1Nc1ncccc1C(N)=O`, the “activity change, negative = inhibition” value was inactive: -8.74%. For `O=[N+]([O-])c1ccc(NCCNS(=O)(=O)c2ccccc2)cc1`, the Potency was inconclusive: 12.6 µM [quencher, side channel, partial curve]. For `CS(=O)(=O)Nc1cccc(C2=NN(C(=O)c3ccco3)C(c3cccs3)C2)c1` (stereo unspecified), the Potency was inconclusive: 15.8 µM [quencher, side channel, partial curve]. `c1cncc(-c2csc(-c3cccnc3)n2)c1` was tested, and the Potency was inconclusive: 20 µM [quencher, side channel, partial curve]. In the case of `Cc1ccc(S(=O)(=O)NC2c3cccc4cccc(c34)C2Sc2nc(C)cc(C)n2)cc1` (stereo unspecified), the “activity change, negative = inhibition” value is reported as inactive: -2.37%. In the case of `CC(C)NS(=O)(=O)c1ccc(CCC(=O)NCc2ccncc2)cc1`, the Potency is reported as inconclusive: 11.2 µM [quencher, side channel, partial curve]. For `COc1ccccc1N1CCN(C(=O)CSc2nnc3c4ccccc4n(CC(=O)O)c3n2)CC1`, the Potency was inconclusive: 20 µM [quencher, side channel, single point]. With `Cc1ccc2nsnc2c1S(=O)(=O)NCc1ccncc1` the Potency was inconclusive: 10 µM [quencher, side channel, partial curve, poor fit]. In the case of `Cc1oc2cc(O)ccc2c(=O)c1Oc1ccccc1`, the “activity change, negative = inhibition” value is reported as inactive: 5.56%. With `O=C(/C=C/c1ccc2c(c1)OCO2)NCCCN1CCOCC1` the “activity change, negative = inhibition” value was inactive: 17.9%. With `O=C(O)c1cc2ccccc2c(=O)s1` the Potency was inconclusive: 22.4 µM [quencher, side channel, single point]. With `O=C(NC(=S)Nc1nc(-c2ccccc2)cs1)c1cncc(Br)c1` the “activity change, negative = inhibition” value was inactive: 1.29%. In the case of `CC1=N/C(=C\c2ccc([N+](=O)[O-])cc2)C(=O)N1c1ccc(Cl)cc1`, the Potency is reported as inconclusive: 11.2 µM [quencher, side channel, partial curve].
